Key:
[1] = test system: patients suffering from pulmonary hypertension; assay: Inhaled administration of Aviptadil by patients with pulmonary hypertension; format: in vivo, human; details: for decrease in pulmonary vascular resistance: vs baseline
Description: The following provides clinical examples for drug dosages, safety and efficacy for inhaled administration by chronically ill patients of the medicament formulation at pH values between 5.3-6.0.

[2] = test system: patients suffering from acute respiratory distress syndrome; assay: Intravenous infusion of Aviptadil in patients with acute respiratory distress syndrome; format: in vivo, human; details: intravenous infusion 50 pmol/kg bodyweight/hr for 12 hrs
Description: The following provides clinical examples for drug dosages, safety and efficacy for infused administration of the medicament formulation at pH values between 5.3-6.0 for patients with acute life threatening conditions like respiratory distress syndrome due to sepsis, burns, gas intoxications, and ischemia.

[3] = isotonic salt solutions between 30° C. to 60° C.; cited from earlier work
[4] = Stability of Aviptadil formulations: purity and assay (quantity) of Aviptadil by HPLC versus day zero
[5] = patient with IPAH, inhaled 100 micrograms single dose
[6] = patient with pulmonary hypertension associated to chronic obstructive pulmonary disease, inhaled 100 micrograms single dose
[7] = patient with pulmonary hypertension associated to chronic obstructive pulmonary disease, inhaled 200 micrograms single dose
[8] = patient with pulmonary hypertension associated to post-VSD, inhaled 100 micrograms single dose
[9] = patient with pulmonary hypertension associated to scleroderma (CREST syndrome), inhaled 100 micrograms single dose
[10] = patient with pulmonary hypertension associated with extrinsic allergic alveolitis, inhaled 100 micrograms single dose
[11] = patient with acute respiratory distress syndrome due to sepsis from peritonitis
[12] = patient with acute respiratory distress syndrome
[13] = pH 4.0, 0.15 M acetic acid/sodium acetate buffer, 25° C. (closed) for 14 days
[14] = pH 5.0, 0.15 M acetic acid/sodium acetate buffer, 25° C. (closed) for 14 days
[15] = pH 5.0, 0.15 M citric acid/trisodium citrate buffer/1 mM EDTA, 25° C. (closed) for 13 days
[16] = pH 5.0, 0.15 M phosphoric acid/trisodium phosphate buffer, 2-8° C. (closed) for 31 days
[17] = pH 5.0, 0.15 M phosphoric acid/trisodium phosphate buffer, 25° C. (closed) for 13 days and 2-8° C. for 18 days
[18] = pH 6.0, 0.15 M acetic acid/sodium acetate buffer, 25° C. (closed) for 14 days
[19] = pH 6.0, 0.15 M citric acid/trisodium citrate buffer/1 mM EDTA, 25° C. (closed) for 13 days
[20] = pH 6.0, 0.15 M phosphoric acid/trisodium phosphate buffer, 2-8° C. (closed) for 31 days
[21] = pH 6.0, 0.15 M phosphoric acid/trisodium phosphate buffer, 25° C. (closed) for 13 days and 2-8° C. for 18 days
[22] = pH 7.0, 0.15 M acetic acid/sodium acetate buffer, 25° C. (closed) for 14 days
[23] = pH 7.0, 0.15 M citric acid/trisodium citrate buffer/1 mM EDTA, 25° C. (closed) for 13 days
[24] = pH 7.0, 0.15 M phosphoric acid/trisodium phosphate buffer, 2-8° C. (closed) for 31 days
[25] = pH 7.0, 0.15 M phosphoric acid/trisodium phosphate buffer, 25° C. (closed) for 13 days and 2-8° C. for 18 days

CC[C@H](C)[C@H](NC(=O)[C@H](CO)NC(=O)[C@H](CC(N)=O)NC(=O)[C@H](CC(C)C)NC(=O)[C@H](Cc1ccc(O)cc1)NC(=O)[C@H](CCCCN)NC(=O)[C@H](CCCCN)NC(=O)[C@@H](NC(=O)[C@H](C)NC(=O)[C@H](CCSC)NC(=O)[C@H](CCC(N)=O)NC(=O)[C@H](CCCCN)NC(=O)[C@H](CCCNC(=N)N)NC(=O)[C@H](CC(C)C)NC(=O)[C@H](CCCNC(=N)N)NC(=O)[C@@H](NC(=O)[C@H](Cc1ccc(O)cc1)NC(=O)[C@H](CC(N)=O)NC(=O)[C@H](CC(=O)O)NC(=O)[C@@H](NC(=O)[C@H](Cc1ccccc1)NC(=O)[C@@H](NC(=O)[C@H](C)NC(=O)[C@H](CC(=O)O)NC(=O)[C@H](CO)NC(=O)[C@@H](N)Cc1c[nH]cn1)C(C)C)[C@@H](C)O)[C@@H](C)O)C(C)C)C(=O)N[C@@H](CC(C)C)C(=O)N[C@@H](CC(N)=O)C(N)=O [Aviptadil]
cardiac output [1, 5]: increase
irritation of the lungs [1, 5]: without any irritation of the lungs
mean arterial pulmonary pressure [1, 5]: decrease
systemic side effects [1, 5]: no systemic side effects
decrease in pulmonary vascular resistance [1, 5]: 20%
irritation of the lungs [1, 6]: without any irritation of the lungs
mean arterial pulmonary pressure [1, 6]: decrease
systemic side effects [1, 6]: no systemic side effects
decrease in pulmonary vascular resistance [1, 6]: 20%
cardiac output [1, 7]: increase
irritation of the lungs [1, 7]: without any irritation of the lungs
mean arterial pulmonary pressure [1, 7]: decrease
systemic side effects [1, 7]: no systemic side effects
decrease in pulmonary vascular resistance [1, 7]: 25%
cardiac output [1, 8]: increase
irritation of the lungs [1, 8]: without any irritation of the lungs
mean arterial pulmonary pressure [1, 8]: decrease
systemic side effects [1, 8]: no systemic side effects
decrease in pulmonary vascular resistance [1, 8]: 21%
cardiac output [1, 9]: increase
irritation of the lungs [1, 9]: without any irritation of the lungs
systemic side effects [1, 9]: no systemic side effects
decrease in pulmonary vascular resistance [1, 9]: 14%
cardiac output [1, 10]: increase
irritation of the lungs [1, 10]: without any irritation of the lungs
mean arterial pulmonary pressure [1, 10]: decrease
systemic side effects [1, 10]: no systemic side effects
decrease in pulmonary vascular resistance [1, 10]: 21%
patient outcome [2, 11]: survived and was discharged from intensive care unit and hospital for rehabilitation
systemic side effects [2, 11]: no systemic side effects
patient outcome [2, 12]: survived and was discharged from intensive care unit and hospital
systemic side effects [2, 12]: no systemic side effects
lability [3]: acid-labile and thermo-labile
% Loss in Assay ([4]; Aviptadil concentration 0.033 mg/mL, 0.12 M citrate buffer, pH 5.7 at 2-8° C. for 10 weeks): −6.5%
% Loss in Assay ([4]; Aviptadil concentration 0.033 mg/mL, 0.15 M sodium chloride at 2-8° C. for 10 weeks): −7.9%
% Loss in Assay ([4]; Aviptadil concentration 0.066 mg/mL, 0.12 M citrate buffer, pH 5.7 at 2-8° C. for 10 weeks): +1.15%
% Loss in Assay ([4]; Aviptadil concentration 0.066 mg/mL, 0.15 M sodium chloride at 2-8° C. for 10 weeks): −2.7%
% Loss in Assay ([4]; Aviptadil concentration 2 mg/mL, 0.15 M sodium chloride at 2-8° C. for 10 weeks): −1.7%
increase of shelf life ([4]; Aviptadil concentration increased from 0.033 mg/mL to 0.066 mg/mL): about 3 fold
purity of sample ([4]; at the different concentrations of Aviptadil (Example 2)): did not show any significant change
shelf life predicted by extrapolation ([4]; extrapolation of the 10 weeks 5° C. data): at least 2 years
pH at which Aviptadil is most stable ([4]; from Tables 1-4, pH 4 to 7): ~6
% Loss in Assay [4, 13]: −14.8%
% Loss in Purity [4, 13]: −11.3%
% Loss in Assay [4, 14]: −11.3%
% Loss in Purity [4, 14]: −6.3%
% Loss in Assay [4, 15]: −15.2%
% Loss in Purity [4, 15]: −3.0%
% Loss in Assay [4, 16]: −5.5%
% Loss in Purity [4, 16]: −1.7%
% Loss in Assay [4, 17]: −17.3%
% Loss in Purity [4, 17]: −8.1%
% Loss in Assay [4, 18]: −8.41%
% Loss in Purity [4, 18]: −1.67%
% Loss in Assay [4, 19]: −11.9%
% Loss in Purity [4, 19]: −0.1%
% Loss in Assay [4, 20]: −3.3%
% Loss in Purity [4, 20]: +1.2%
% Loss in Assay [4, 21]: −12.4%
% Loss in Purity [4, 21]: −4.7%
% Loss in Assay [4, 22]: −15.21%
% Loss in Purity [4, 22]: −6.15%
% Loss in Assay [4, 23]: −28.4%
% Loss in Purity [4, 23]: −17.1%
% Loss in Assay [4, 24]: −8.7%
% Loss in Purity [4, 24]: −2.7%
% Loss in Assay [4, 25]: −31.8%
% Loss in Purity [4, 25]: −23.5%
